Measured values reported in PubChem BioAssay AID1476 (National Center for Advancing Translational Sciences (NCATS), 2009).
Among all 200,000 compounds or so, about 4,500 (2.2%) were called active. The inconclusive results got no clear call from the source; some entries with a clear call stand among them for comparison. Calls follow the shape of the dose curve; as a rule, active = well fitted inhibition curve with a large enough effect; inconclusive = small, poorly fitted or top-dose-only effect, or effect the other way; inactive = flat fitted curve, though single readings scatter. Potencies beside an inconclusive call are fits to weak or partial responses and may not hold up.

These compounds were tested against Cruzipain (Trypanosoma cruzi) (UniProt P25779) (assay: qHTS Assay for Promiscuous and Specific Inhibitors of Cruzain (without detergent)). Settings: purified cruzain, Z-FR-AMC fluorescence, no detergent.
Procedure, shortened: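 Purified cruzain at 1.5 nM, pre-incubated 15 min with compound at room temperature in 100 mM sodium acetate pH 5.5, 5 mM DTT, 0.00005% Triton X-100. Reaction started with 2 uM Z-FR-AMC; AMC fluorescence increase over 60 s gives rate.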
Also: nearly all actives have a fitted effect of over 40% in size.
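For max response, negative = inhibition in this document: plate controls were enzyme without inhibitor for no effect and buffer without enzyme for full effect.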
Potency is read from the fitted curve at half-maximal effect; tags tell the direction and shape of the fitted curve.

UniProt P25779, sequence (P25779 whole entry, looked up): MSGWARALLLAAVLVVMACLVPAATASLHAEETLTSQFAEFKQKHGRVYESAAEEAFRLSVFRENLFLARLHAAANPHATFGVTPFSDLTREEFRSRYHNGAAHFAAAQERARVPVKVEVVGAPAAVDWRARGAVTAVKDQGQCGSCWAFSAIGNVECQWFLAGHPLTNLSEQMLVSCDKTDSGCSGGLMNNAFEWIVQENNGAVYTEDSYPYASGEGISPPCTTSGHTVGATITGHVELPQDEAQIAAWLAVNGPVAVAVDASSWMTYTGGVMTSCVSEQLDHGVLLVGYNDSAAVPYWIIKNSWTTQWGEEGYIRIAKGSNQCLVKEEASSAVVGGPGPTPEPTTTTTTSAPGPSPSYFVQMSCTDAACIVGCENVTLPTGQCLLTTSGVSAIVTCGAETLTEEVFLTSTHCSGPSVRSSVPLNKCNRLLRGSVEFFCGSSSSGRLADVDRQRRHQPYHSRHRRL

SMILES | Potency | max response, negative = inhibition
COC(=O)c1ccc2c(=O)n(CCN3CCOCC3)c(SCC(=O)C(C)(C)C)nc2c1 | inconclusive: 39.8 µM [activator, single point] | 
CC1CCN(C(=O)CN2C(=O)c3ccccc3S2(=O)=O)CC1 | inconclusive: 39.8 µM [inhibitor, single point] | 
CCOc1ccc(N2CC(C(=O)NCCN3C(=O)S/C(=C\c4ccc(OC)c(OC)c4)C3=O)CC2=O)cc1 (stereo unspecified) | inconclusive: 25.1 µM [activator, single point] | 
CN1C(=O)C2(SCC(=O)N2c2ccc(F)cc2)c2ccccc21 (stereo unspecified) |  | inactive: 6.33%
COc1cc(OC)cc(C(=O)Nc2ccc3oc(-c4cccc5c(Br)cccc45)nc3c2)c1 |  | inactive: 2.23%
CCOc1ccc(OCC)c(NS(=O)(=O)c2cc(-c3onc(C)c3C)ccc2OC)c1 |  | inactive: 28.3%
O=C(NCc1ccc2c(c1)OCO2)c1cc2n(n1)C(C(F)(F)F)CC(c1ccc3c(c1)OCO3)N2 (stereo unspecified) | inconclusive: 39.8 µM [inhibitor, single point] | 
COc1cc(OC)c(NC(=S)Nc2cccc(C(C)=O)c2)cc1Cl | inconclusive: 39.8 µM [inhibitor, single point] | 
O=C(Nc1ccc(F)cc1)Nc1ccc(Cl)cn1 |  | inactive: -18.2%
CCOc1ccc(-n2cc(C(=O)NCc3ccco3)c3cc(OC)c(OC)cc3c2=O)cc1 | inconclusive: 31.6 µM [activator, single point] | 
O=c1c2ccccc2nc(CSc2ncnc3nc[nH]c23)n1-c1ccccc1 |  | inactive: -13.4%
CCC(=O)N1CCc2cc(Br)cc(S(=O)(=O)CCC(=O)N(CC)Cc3ccccc3)c21 |  | inactive: 8.28%
Cc1ccc(NC(=O)CN2C(=O)C3(SCC(=O)N3c3ccc(F)c(F)c3)c3ccccc32)c(C)c1 (stereo unspecified) | inconclusive: 39.8 µM [inhibitor, single point] | 
CC(=O)SC1CC2=CC(=O)CC[C@]2(C)C2CC[C@@]3(C)[C@@H](CC[C@@]34CCC(=O)O4)C12 (stereo partly specified) |  | inactive: 17.6%
CCOCCCNC(=O)C(c1ccc(Cl)cc1)N(Cc1cccs1)C(=O)c1ccc(NC(C)=O)cc1 (stereo unspecified) | inconclusive: 20 µM [activator, partial curve] | 
CCn1c2ccccc2c2cc(NC(=O)CSc3nnnn3-c3ccccc3)ccc21 | inconclusive: 39.8 µM [inhibitor, single point] | 
CCCCn1nnnc1NCc1cc(OC)c(OC)cc1OC |  | inactive: 3.17%
CC1=C(C)CS(=O)N(S(=O)(=O)c2ccc(Cl)cc2)C1 (stereo unspecified) | inconclusive: 3.16 µM [inhibitor, full curve] | 
COc1cc(-c2ccc(N=C=O)c(OC)c2)ccc1N=C=O | active: 31.6 µM | 
Cc1ccc2nc(C3CCCN(C(=O)NCc4ccccc4)C3)[nH]c2c1 (stereo unspecified) | active: 6.31 µM | 
O=C(CC1SC(=Nc2ccccc2)N(Cc2ccccn2)C1=O)Nc1cccc(Cl)c1 (stereo unspecified) | inconclusive: 31.6 µM [inhibitor, single point] | 

SMILES | Potency | max response, negative = inhibition
O=C(Nc1nc(-c2cc(Cl)sc2Cl)cs1)c1ccc(Br)s1 | active: 7.94 µM | 
CC(Oc1cc(-c2ccccc2)cc2ccccc12)C(=O)N1CCOCC1 (stereo unspecified) | inconclusive: 25.1 µM [activator, partial curve] | 
CCOc1cc(C(=O)Nc2ccc(S(=O)(=O)Nc3cc(OC)nc(OC)n3)cc2)cc(OCC)c1OCC | inconclusive: 39.8 µM [activator, single point] | 
CCOC(=O)c1c(NC(=O)c2c(-c3ccccc3)noc2C)sc(C)c1-c1ccccc1 | inconclusive: 10 µM [inhibitor, partial curve] | 
Cc1cccc(C)c1NC(=O)c1ccc(-c2ccc(Cl)cc2Cl)o1 | inconclusive: 31.6 µM [inhibitor, single point] | 
CCCCc1ccc(NC(=O)c2ccc3c(c2)CCN3S(=O)(=O)c2ccccc2)cc1 | inconclusive: 31.6 µM [inhibitor, single point] | 
CC(=O)N1CCCc2cc(S(=O)(=O)N3CCCC(C(=O)Nc4cccc(Cl)c4C)C3)ccc21 (stereo unspecified) |  | inactive: 20.6%
CC(C)Cn1cc(C(=O)N2CCN(c3cccc(Cl)c3)CC2)c2c3ccccc3n(C)c2c1=O |  | inactive: 10.7%
CCOc1ccc2c(c1)cc(CN(C(=O)CC)C1CCCCC1)c1nnnn12 | inconclusive: 39.8 µM [activator, single point] | 
COc1ccc(OC2C(=O)N(Cc3ccc(F)cc3)C2c2cc(OC)c(OC)c(OC)c2)cc1 (stereo unspecified) | inconclusive: 39.8 µM [activator, single point] | 
CCOC(=O)C1CCCN(C/C(O)=C(\C#N)c2nc(-c3ccc(Cl)cc3)cs2)C1 (stereo unspecified) | inconclusive: 39.8 µM [activator, single point] | 
CC(C)CC(=O)N[C@H](C(=O)N[C@H](C(=O)N[C@@H](CC(C)C)[C@@H](O)CC(=O)N[C@@H](C)C(=O)N[C@@H](CC(C)C)[C@@H](O)CC(=O)O)C(C)C)C(C)C | inconclusive: 31.6 µM [activator, partial curve] | 
CC(=O)c1ccc(S(=O)(=O)N(Cc2cc3cc4c(cc3[nH]c2=O)OCCO4)CC2CCCO2)cc1 (stereo unspecified) |  | inactive: -2.07%
COc1ccc(Cl)cc1N1C(=O)[C@@H]2C(c3cccc(OC)c3OC)=NO[C@@H]2C1=O | inconclusive: 3.98 µM [inhibitor, single point] | 
COc1ccc(N2CCN(C(=O)CSc3nnc4c(C)cc5c(C)cc(C)cc5n34)CC2)cc1 | inconclusive: 31.6 µM [activator, single point] | 
CCOC(=O)c1cc(S(=O)(=O)N2CCN(c3ccc(F)cc3)CC2)[nH]n1 |  | inactive: 6.69%
COc1ccc(CN(Cc2cccnc2)S(=O)(=O)c2ccc(-n3cnnn3)c(C)c2)cc1OC | inconclusive: 25.1 µM [activator, single point] | 
O=C1C2C3c4ccccc4C(Br)(c4ccccc43)C2C(=O)N1c1ccccc1O (stereo unspecified) | inconclusive: 25.1 µM [activator, single point] | 
CCc1ccc(NS(=O)(=O)c2ccc3[nH]cc(C(=O)N4CCCCC4)c(=O)c3c2)cc1 | inconclusive: 7.94 µM [activator, single point] | 
NC(=O)CNC(=O)[C@@H]1CC2(CC(c3cccc(Br)c3)=NO2)CN1C(=O)c1ccc(Br)cc1 (stereo partly specified) | inconclusive: 31.6 µM [activator, partial curve] | 
COc1ccc(-c2csc3nc(-c4ccccc4F)oc(=O)c23)cc1OC | inconclusive: 31.6 µM [activator, single point] | 

SMILES | Potency | max response, negative = inhibition
CCCOc1ccc(NC(=O)C2CC(=O)N/C(=N/N=C(C)/C=C/c3ccc(N(C)C)cc3)S2)cc1 (stereo unspecified) | active: 25.1 µM | 
Cc1ccc(NC(=O)C2c3ccccc3Oc3ccccc32)c(C)c1 | inconclusive: 39.8 µM [inhibitor, single point] | 
COC(=O)[C@@]1(Cc2ccccc2)[C@H]2c3cc(C(=O)N4CCCC4)n(Cc4nc5ccccc5[nH]4)c3C[C@H]2CN1C(=O)c1ccccc1 | inconclusive: 31.6 µM [activator, single point] | 
O=C(NCc1ccccc1Cl)c1ccc(NC(=O)N2CCSc3ncccc32)cc1 | inconclusive: 39.8 µM [inhibitor, single point] | 
COc1cccc(N2CCN(C(=O)c3cc4c(=O)n(Cc5ccco5)ccc4nc3C)CC2)c1 | inconclusive: 39.8 µM [activator, single point] | 
COc1ccc(C(C#N)(CCC#N)CCC#N)cc1OC |  | inactive: 2.28%
O=C(Nc1ccc(S(=O)(=O)N(Cc2ccccc2)c2ccccc2)cc1)c1ccc([N+](=O)[O-])cc1 |  | inactive: -8.58%
Cc1ccc(NC(=O)c2oc3ccc(S(=O)(=O)N4CCC5(CC4)OCCO5)cc3c2C)c(C)c1 | inconclusive: 39.8 µM [activator, single point] | 
CCOC(=O)c1ccc(CN(Cc2ccc(C)cc2)S(=O)(=O)c2ccc(NC(C)=O)cc2)cc1 | inconclusive: 39.8 µM [activator, single point] | 
CSc1cccc(NC(=O)C2CCN(S(=O)(=O)c3ccc4[nH]c5c(c4c3)CCCCC5)CC2)c1 | active: 12.6 µM | 
CCOc1ccc(NC(=O)/C(C#N)=C/c2ccc(N3CCCC3)c(C)c2)cc1 | active: 10 µM | 
O=C(C1CCN(S(=O)(=O)Cc2ccccc2)CC1)N1CCN(c2cccc(Cl)c2)CC1 |  | inactive: 17.5%
CCn1c2ccccc2c2cnc(N=CN(C)C)c(C#N)c21 | inconclusive: 39.8 µM [activator, single point] | 
CCOc1cccc(NC(=O)c2ccc(F)c(S(=O)(=O)N(CC)c3cccc(C)c3)c2)c1 |  | inactive: -18%
Cc1ccc(CNC(=O)C2CCN(C(=O)c3cnn(-c4ccccc4)c3-n3cccc3)CC2)cc1 | inconclusive: 25.1 µM [activator, partial curve] | 
COc1cc2c3nnc(-c4ccc(F)cc4)c-3cn(Cc3cccc(C)c3)c2cc1OC | inconclusive: 5.01 µM [inhibitor, partial curve] | 
COCCCn1c(N)c(C(=O)OC(C)COC)c2nc3ccccc3nc21 (stereo unspecified) | inconclusive: 31.6 µM [activator, single point] | 
O=C(Nc1cc(Cl)cc(Cl)c1)c1ccc(Cn2c(=O)[nH]c3ccsc3c2=O)cc1 | inconclusive: 39.8 µM [inhibitor, single point] | 
O=C1c2cccc3c(Nc4ccccc4Cl)c([N+](=O)[O-])cc(c23)C(=O)N1CCO | inconclusive: 39.8 µM [activator, single point] | 
